The supplement of paper PMC4967469
The IC50 comes from the fitted curve, where viability falls to half of the control; a fit beyond the top or the lowest dose is shown as a bound at that dose. The AUC spans the tested range (256-fold, ending at the top dose) of the same fit; it is 1 without any effect and falls as sensitivity rises. The top dose, if marked as inferred, was derived from the fitted curves, not read from the paper.

Legend:
Assay in all cases: Viability of human cancer cell lines after 72 h of drug (GDSC screen)
QL-XI-92 = compound: C=CC(=O)Nc1cc(NC(=O)c2ccc(C)c(NC(=O)c3ccno3)c2)cc(C(F)(F)F)c1 [QL-XI-92]; conditions: top dose 10.24 µM; top dose inferred
Experimental: (§1)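 Human cancer cell lines in 384-well plates, medium with 10% serum, drug for 72 h over a 256-fold dose range (nine 2-fold or five 4-fold steps up to the top dose). Adherent lines were fixed and stained with the nucleic acid dye Syto60, suspension lines read with resazurin; signal relative to control wells, capped at 0 and 100%. One two-parameter sigmoid per drug and line, fitted in a mixed model over all curves with the slope shared within a line.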

WHI-P97 = compound: COc1cc2ncnc(Nc3cc(Br)c(O)c(Br)c3)c2cc1OC [WHI-P97]; conditions: top dose 10.24 µM; top dose inferred
Experimental: as §1

Phenformin = compound: N=C(N)NC(=N)NCCc1ccccc1 [Phenformin]; conditions: top dose 4000 µM; top dose inferred
Experimental: as §1

AG-014699 = compound: CNCc1ccc(-c2[nH]c3cc(F)cc4c3c2CCNC4=O)cc1 [AG-014699]; conditions: top dose 5 µM; top dose inferred
Experimental: as §1

NU-7441 = compound: O=c1cc(N2CCOCC2)oc2c(-c3cccc4c3sc3ccccc34)cccc12 [NU-7441]; conditions: top dose 2 µM; top dose inferred
Experimental: as §1

XL-184 = compound: COc1cc2nccc(Oc3ccc(NC(=O)C4(C(=O)Nc5ccc(F)cc5)CC4)cc3)c2cc1OC [XL-184]; conditions: top dose 5.12 µM; top dose inferred
Experimental: as §1

Vinorelbine = compound: CCC1=C[C@@H]2CN(C1)Cc1c([nH]c3ccccc13)[C@@](C(=O)OC)(c1cc3c(cc1OC)N(C)[C@H]1[C@@](O)(C(=O)OC)[C@H](OC(C)=O)[C@]4(CC)C=CCN5CC[C@]31[C@@H]54)C2 [Vinorelbine]; conditions: top dose 0.064 µM; top dose inferred
Experimental: as §1

EHT 1864 = compound: O=c1cc(CN2CCOCC2)occ1OCCCCCSc1ccnc2cc(C(F)(F)F)ccc12 [EHT 1864]; conditions: top dose 10 µM; top dose inferred
Experimental: as §1

Cell Line	AUC (QL-XI-92)	IC50 (QL-XI-92)	AUC (WHI-P97)	IC50 (WHI-P97)	AUC (Phenformin)	IC50 (Phenformin)	AUC (AG-014699)	IC50 (AG-014699)	AUC (NU-7441)	IC50 (NU-7441)	AUC (XL-184)	IC50 (XL-184)	AUC (Vinorelbine)	IC50 (Vinorelbine)	AUC (EHT 1864)	IC50 (EHT 1864)
22RV1 (prostate, adherent)	0.959	> 10.2 µM	0.979	> 10.2 µM	0.975	> 4 mM	0.927	> 5 µM	0.977	> 2000 nM	0.867	> 5.12 µM	0.632	10.1 nM	0.934	> 10 µM
786-0 (kidney, adherent)	0.908	> 10.2 µM	0.937	> 10.2 µM	0.667	0.696 mM	0.979	> 5 µM	0.938	> 2000 nM	0.928	> 5.12 µM	0.489	3.75 nM	0.841	6.16 µM
A172 (glioma, adherent)	0.916	> 10.2 µM	0.977	> 10.2 µM	0.583	0.417 mM	0.931	> 5 µM	0.947	> 2000 nM	0.915	> 5.12 µM	0.691	13.4 nM	0.912	> 10 µM
A375 (melanoma, adherent)	0.991	> 10.2 µM	0.986	> 10.2 µM			0.948	> 5 µM	0.933	> 2000 nM			0.86	39.1 nM	0.98	> 10 µM
A431 (skin, adherent)	0.877	9.56 µM	0.864	8.31 µM	0.533	0.307 mM	0.947	> 5 µM	0.971	> 2000 nM			0.46	3.13 nM	0.98	> 10 µM
A673 (rhabdomyosarcoma, adherent)	0.986	> 10.2 µM	0.985	> 10.2 µM	0.897	> 4 mM	0.892	4.84 µM	0.987	> 2000 nM	0.965	> 5.12 µM	0.613	7.89 nM	0.962	> 10 µM
BCPAP (thyroid, adherent)	0.967	> 10.2 µM	0.988	> 10.2 µM	0.964	> 4 mM	0.959	> 5 µM	0.963	> 2000 nM	0.91	> 5.12 µM	0.439	2.76 nM	0.961	> 10 µM
BHY (head and neck, adherent)	0.93	> 10.2 µM	0.839	7 µM	0.582	0.418 mM	0.979	> 5 µM	0.971	> 2000 nM	0.909	> 5.12 µM	0.654	10.7 nM	0.957	> 10 µM
BPH-1 (prostate, adherent)	0.864	> 10.2 µM	0.763	4.07 µM	0.888	> 4 mM	0.887	> 5 µM	0.928	> 2000 nM	0.829	3.64 µM	0.438	2.66 nM	0.894	> 10 µM
BT-20 (breast, adherent)	0.93	> 10.2 µM	0.961	> 10.2 µM	0.819	3.03 mM	0.96	> 5 µM	0.98	> 2000 nM	0.973	> 5.12 µM	0.696	16.4 nM	0.932	> 10 µM
BxPC-3 (pancreas, adherent)	0.983	> 10.2 µM	0.974	> 10.2 µM			0.953	> 5 µM	0.976	> 2000 nM	0.892	> 5.12 µM	0.521	4.59 nM	0.973	> 10 µM
CAL-54 (kidney, adherent)	0.985	> 10.2 µM	0.972	> 10.2 µM	0.855	3.94 mM	0.91	> 5 µM	0.935	> 2000 nM	0.849	4.74 µM	0.917	> 64 nM	0.966	> 10 µM
CAL-85-1 (breast, adherent)	0.93	> 10.2 µM	0.824	8.53 µM	0.909	> 4 mM	0.979	> 5 µM	0.981	> 2000 nM	0.9	> 5.12 µM	0.451	2.82 nM	0.967	> 10 µM
COLO-205 (large intestine, suspension)	0.98	> 10.2 µM	0.985	> 10.2 µM	0.789	1.74 mM	0.975	> 5 µM	0.985	> 2000 nM			0.368	1.74 nM	0.899	> 10 µM
ChaGo-K-1 (non-small cell lung carcinoma, adherent)	0.952	> 10.2 µM	0.98	> 10.2 µM	0.83	3.09 mM	0.966	> 5 µM	0.975	> 2000 nM	0.98	> 5.12 µM	0.491	3.76 nM	0.977	> 10 µM
DAN-G (pancreas, adherent)	0.984	> 10.2 µM	0.991	> 10.2 µM	0.785	1.49 mM	0.976	> 5 µM	0.963	> 2000 nM	0.97	> 5.12 µM	0.985	> 64 nM	0.992	> 10 µM
HT-29 (large intestine, adherent)	0.98	> 10.2 µM	0.987	> 10.2 µM	0.834	2.6 mM	0.939	> 5 µM	0.962	> 2000 nM			0.435	2.66 nM	0.988	> 10 µM
HT-1080 (fibrosarcoma, adherent)	0.975	> 10.2 µM	0.989	> 10.2 µM	0.957	> 4 mM	0.888	4.63 µM	0.945	> 2000 nM			0.446	2.89 nM	0.977	> 10 µM

Cell Line	AUC (QL-XI-92)	IC50 (QL-XI-92)	AUC (WHI-P97)	IC50 (WHI-P97)	AUC (Phenformin)	IC50 (Phenformin)	AUC (AG-014699)	IC50 (AG-014699)	AUC (NU-7441)	IC50 (NU-7441)	AUC (XL-184)	IC50 (XL-184)	AUC (Vinorelbine)	IC50 (Vinorelbine)	AUC (EHT 1864)	IC50 (EHT 1864)
IGR-37 (melanoma, adherent)	0.989	> 10.2 µM	0.939	> 10.2 µM			0.989	> 5 µM	0.923	> 2000 nM	0.896	> 5.12 µM	0.687	12.7 nM	0.965	> 10 µM
LN-229 (glioma, adherent)	0.977	> 10.2 µM	0.964	> 10.2 µM	0.86	3.34 mM			0.988	> 2000 nM			0.832	40.5 nM	0.96	> 10 µM
LoVo (large intestine, adherent)	0.985	> 10.2 µM	0.987	> 10.2 µM	0.235	0.0423 mM			0.777	813 nM			0.613	8.23 nM		
MDA-MB-157 (breast, adherent)	0.987	> 10.2 µM	0.985	> 10.2 µM	0.798	1.96 mM	0.957	> 5 µM	0.912	> 2000 nM			0.871	62.8 nM	0.955	> 10 µM
MDA-MB-231 (breast, adherent)	0.962	> 10.2 µM	0.986	> 10.2 µM			0.92	> 5 µM	0.982	> 2000 nM			0.787	29.7 nM	0.974	> 10 µM
MDA-MB-468 (breast, adherent)	0.952	> 10.2 µM	0.912	> 10.2 µM	0.284	0.0629 mM			0.966	> 2000 nM	0.976	> 5.12 µM	0.523	4.62 nM	0.911	> 10 µM
NCI-H23 (lung adenocarcinoma, adherent)	0.89	> 10.2 µM	0.892	> 10.2 µM	0.82	2.27 mM	0.949	> 5 µM	0.963	> 2000 nM	0.969	> 5.12 µM			0.95	> 10 µM
NCI-H358 (lung adenocarcinoma, adherent)	0.925	> 10.2 µM	0.805	5.84 µM	0.64	0.639 mM	0.976	> 5 µM	0.984	> 2000 nM	0.895	> 5.12 µM			0.97	> 10 µM
NCI-H522 (lung adenocarcinoma, adherent)	0.965	> 10.2 µM	0.948	> 10.2 µM	0.298	0.06 mM	0.97	> 5 µM	0.954	> 2000 nM	0.972	> 5.12 µM			0.91	> 10 µM
NCI-H661 (large cell lung carcinoma, adherent)	0.943	> 10.2 µM	0.98	> 10.2 µM	0.357	0.0924 mM	0.891	> 5 µM	0.901	> 2000 nM	0.902	> 5.12 µM			0.781	5.08 µM
NCI-H1703 (lung adenocarcinoma, adherent)	0.684	2.36 µM	0.973	> 10.2 µM	0.703	1.07 mM	0.981	> 5 µM	0.982	> 2000 nM	0.85	> 5.12 µM			0.952	> 10 µM
NCI-H2030 (lung adenocarcinoma, adherent)	0.922	> 10.2 µM	0.879	> 10.2 µM	0.817	2.66 mM	0.881	> 5 µM	0.922	> 2000 nM	0.934	> 5.12 µM			0.976	> 10 µM
NCI-H2110 (non-small cell lung carcinoma, adherent)	0.953	> 10.2 µM	0.804	5.27 µM	0.749	1.33 mM	0.97	> 5 µM	0.943	> 2000 nM	0.89	> 5.12 µM			0.96	> 10 µM
OVCAR-8 (ovary, adherent)	0.986	> 10.2 µM	0.968	> 10.2 µM	0.755	1.23 mM	0.875	4.03 µM	0.974	> 2000 nM	0.926	> 5.12 µM			0.956	> 10 µM
RPMI-8226 (myeloma, suspension)	0.861	6.9 µM	0.978	> 10.2 µM	0.642	0.583 mM	0.987	> 5 µM	0.95	> 2000 nM			0.659	10.3 nM	0.959	> 10 µM
SK-MEL-28 (melanoma, adherent)	0.986	> 10.2 µM	0.963	> 10.2 µM	0.861	3.3 mM	0.986	> 5 µM	0.933	> 2000 nM			0.955	> 64 nM	0.988	> 10 µM
SNU-407 (large intestine, adherent)	0.982	> 10.2 µM	0.912	> 10.2 µM	0.893	> 4 mM	0.979	> 5 µM	0.95	> 2000 nM	0.933	> 5.12 µM			0.877	> 10 µM
SW620 (large intestine, adherent)	0.877	8.23 µM	0.982	> 10.2 µM	0.82	1.96 mM			0.985	> 2000 nM	0.929	> 5.12 µM	0.633	8.87 nM	0.977	> 10 µM
